Data taken from article PMC9974451.
Substitutions are numbered along the chain they refer to. No constants are given. Whether binding was seen depends on the method and setting. Some binding calls cover weakened binding; strength is not graded here. Sequences can lack the tags named with a protein.

Sequences of proteins named here, by UniProt entry; tags and fusion partners are left off. Residues count along the entry.
UniProt Q92973, residues 9-898: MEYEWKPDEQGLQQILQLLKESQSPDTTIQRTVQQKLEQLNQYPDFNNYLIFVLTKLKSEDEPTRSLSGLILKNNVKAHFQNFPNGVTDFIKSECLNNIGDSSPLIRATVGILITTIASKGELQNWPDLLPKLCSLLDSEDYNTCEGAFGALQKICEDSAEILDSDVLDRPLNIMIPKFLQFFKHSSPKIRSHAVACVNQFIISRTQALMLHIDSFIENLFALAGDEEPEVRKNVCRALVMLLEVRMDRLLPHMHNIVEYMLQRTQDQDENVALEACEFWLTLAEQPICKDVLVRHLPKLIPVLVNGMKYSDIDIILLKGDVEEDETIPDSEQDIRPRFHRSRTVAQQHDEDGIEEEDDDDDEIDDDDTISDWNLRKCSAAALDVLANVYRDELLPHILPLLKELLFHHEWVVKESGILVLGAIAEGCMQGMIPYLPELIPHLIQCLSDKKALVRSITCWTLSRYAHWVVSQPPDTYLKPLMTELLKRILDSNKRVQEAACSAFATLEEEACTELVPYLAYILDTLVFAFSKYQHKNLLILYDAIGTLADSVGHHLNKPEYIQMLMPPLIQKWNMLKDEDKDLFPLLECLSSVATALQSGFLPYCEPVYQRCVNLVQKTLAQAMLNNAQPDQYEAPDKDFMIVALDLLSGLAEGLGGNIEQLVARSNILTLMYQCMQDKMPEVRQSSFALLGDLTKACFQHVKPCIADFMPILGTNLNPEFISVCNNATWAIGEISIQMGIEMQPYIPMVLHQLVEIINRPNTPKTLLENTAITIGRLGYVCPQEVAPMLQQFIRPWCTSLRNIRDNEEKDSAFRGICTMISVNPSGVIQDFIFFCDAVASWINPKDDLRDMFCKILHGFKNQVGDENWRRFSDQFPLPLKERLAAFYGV
UniProt Q14974: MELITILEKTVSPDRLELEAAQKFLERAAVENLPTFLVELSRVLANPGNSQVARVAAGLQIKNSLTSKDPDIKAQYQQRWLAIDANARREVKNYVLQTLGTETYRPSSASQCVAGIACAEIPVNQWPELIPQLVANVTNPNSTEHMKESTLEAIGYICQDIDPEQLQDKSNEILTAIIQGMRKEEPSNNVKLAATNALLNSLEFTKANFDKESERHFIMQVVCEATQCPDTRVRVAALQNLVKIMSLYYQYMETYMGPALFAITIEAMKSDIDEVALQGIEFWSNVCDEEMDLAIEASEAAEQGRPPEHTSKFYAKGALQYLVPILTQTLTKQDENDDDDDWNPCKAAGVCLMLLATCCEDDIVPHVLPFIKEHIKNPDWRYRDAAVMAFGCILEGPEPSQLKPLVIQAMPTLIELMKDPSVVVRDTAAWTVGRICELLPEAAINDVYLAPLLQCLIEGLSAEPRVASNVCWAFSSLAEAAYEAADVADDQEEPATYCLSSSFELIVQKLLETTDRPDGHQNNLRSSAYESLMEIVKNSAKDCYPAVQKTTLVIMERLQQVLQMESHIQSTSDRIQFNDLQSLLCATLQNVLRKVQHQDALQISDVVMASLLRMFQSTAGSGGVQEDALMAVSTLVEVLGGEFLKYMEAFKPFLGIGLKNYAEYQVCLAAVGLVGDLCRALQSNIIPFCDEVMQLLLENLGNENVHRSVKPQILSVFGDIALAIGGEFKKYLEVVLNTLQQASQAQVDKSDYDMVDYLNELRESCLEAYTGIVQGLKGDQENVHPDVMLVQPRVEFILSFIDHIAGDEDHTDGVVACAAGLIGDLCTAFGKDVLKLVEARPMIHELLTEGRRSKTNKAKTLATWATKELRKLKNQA

T1: His-NOSIP-MBP (nitric oxide synthase interacting protein) (UniProt Q9Y314)
T1 sequence: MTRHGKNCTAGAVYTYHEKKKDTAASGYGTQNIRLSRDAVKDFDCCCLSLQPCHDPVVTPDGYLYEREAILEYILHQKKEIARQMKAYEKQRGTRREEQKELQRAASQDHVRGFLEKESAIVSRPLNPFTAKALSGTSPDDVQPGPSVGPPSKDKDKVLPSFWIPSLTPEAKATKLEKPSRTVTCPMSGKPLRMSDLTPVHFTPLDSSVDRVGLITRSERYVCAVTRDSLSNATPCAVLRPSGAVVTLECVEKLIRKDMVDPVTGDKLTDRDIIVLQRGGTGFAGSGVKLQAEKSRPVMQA

T2: His-NOSIP-MBP K78AK79A (UniProt Q9Y314)
T2 sequence: T1 sequence with K78A, K79A

T3: His-importin 13 (UniProt O94829)
T3 sequence: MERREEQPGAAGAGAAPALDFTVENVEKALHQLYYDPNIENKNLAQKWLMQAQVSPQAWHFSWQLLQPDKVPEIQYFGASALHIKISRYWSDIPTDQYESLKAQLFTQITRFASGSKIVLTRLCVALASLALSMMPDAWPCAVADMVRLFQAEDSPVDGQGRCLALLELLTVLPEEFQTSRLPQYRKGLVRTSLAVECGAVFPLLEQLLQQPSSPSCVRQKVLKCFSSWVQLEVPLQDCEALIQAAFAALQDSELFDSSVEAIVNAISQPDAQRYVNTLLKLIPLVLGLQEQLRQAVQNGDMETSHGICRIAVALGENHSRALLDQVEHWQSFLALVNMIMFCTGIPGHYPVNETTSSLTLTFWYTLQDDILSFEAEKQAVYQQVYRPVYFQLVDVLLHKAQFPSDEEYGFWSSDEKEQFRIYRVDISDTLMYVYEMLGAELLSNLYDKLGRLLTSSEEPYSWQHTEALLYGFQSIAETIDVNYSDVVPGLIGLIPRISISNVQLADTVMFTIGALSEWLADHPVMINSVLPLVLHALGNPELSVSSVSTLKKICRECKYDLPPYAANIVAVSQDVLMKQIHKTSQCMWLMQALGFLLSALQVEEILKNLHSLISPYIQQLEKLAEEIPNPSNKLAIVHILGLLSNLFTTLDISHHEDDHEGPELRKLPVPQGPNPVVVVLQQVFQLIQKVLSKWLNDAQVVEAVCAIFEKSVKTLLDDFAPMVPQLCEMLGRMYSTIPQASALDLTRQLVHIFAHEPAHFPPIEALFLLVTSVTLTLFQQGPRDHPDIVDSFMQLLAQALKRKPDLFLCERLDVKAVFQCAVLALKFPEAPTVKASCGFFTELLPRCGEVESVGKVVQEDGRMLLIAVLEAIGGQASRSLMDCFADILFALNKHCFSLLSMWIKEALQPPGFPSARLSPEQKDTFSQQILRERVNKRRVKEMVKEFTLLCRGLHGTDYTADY

B1: His-importin 5 (protein, UniProt O00410 1-1097)
chain: MAAAAAEQQQFYLLLGNLLSPDNVVRKQAEETYENIPGQSKITFLLQAIRNTTAAEEARQMAAVLLRRLLSSAFDEVYPALPSDVQTAIKSELLMIIQMETQSSMRKKVCDIAAELARNLIDEDGNNQWPEGLKFLFDSVSSQNVGLREAALHIFWNFPGIFGNQQQHYLDVIKRMLVQCMQDQEHPSIRTLSARATAAFILANEHNVALFKHFADLLPGFLQAVNDSCYQNDDSVLKSLVEIADTVPKYLRPHLEATLQLSLKLCGDTSLNNMQRQLALEVIVTLSETAAAMLRKHTNIVAQTIPQMLAMMVDLEEDEDWANADELEDDDFDSNAVAGESALDRMACGLGGKLVLPMIKEHIMQMLQNPDWKYRHAGLMALSAIGEGCHQQMEGILNEIVNFVLLFLQDPHPRVRYAACNAVGQMATDFAPGFQKKFHEKVIAALLQTMEDQGNQRVQAHAAAALINFTEDCPKSLLIPYLDNLVKHLHSIMVLKLQELIQKGTKLVLEQVVTSIASVADTAEEKFVPYYDLFMPSLKHIVENAVQKELRLLRGKTIECISLIGLAVGKEKFMQDASDVMQLLLKTQTDFNDMEDDDPQISYMISAWARMCKILGKEFQQYLPVVMGPLMKTASIKPEVALLDTQDMENMSDDDGWEFVNLGDQQSFGIKTAGLEEKSTACQMLVCYAKELKEGFVEYTEQVVKLMVPLLKFYFHDGVRVAAAESMPLLLECARVRGPEYLTQMWHFMCDALIKAIGTEPDSDVLSEIMHSFAKCIEVMGDGCLNNEHFEELGGILKAKLEEHFKNQELRQVKRQDEDYDEQVEESLQDEDDNDVYILTKVSDILHSIFSSYKEKVLPWFEQLLPLIVNLICPHRPWPDRQWGLCIFDDVIEHCSPASFKYAEYFLRPMLQYVCDNSPEVRQAAAYGLGVMAQYGGDNYRPFCTEALPLLVRVIQSADSKTKENVNATENCISAVGKIMKFKPDCVNVEEVLPHWLSWLPLHEDKEEAVQTFNYLCDLIESNHPIVLGPNNTNLPKIFSIIAEGEMHEAIKHEDPCAKRLANVVRQVQTSGGLWTECIAQLSPEQQAAIQELLNSA
B2: His-NOSIP (protein, UniProt Q9Y314 1-301)
chain: T1 sequence

Tests used:
[1] = target: T1, His-NOSIP-MBP (nitric oxide synthase interacting protein); experiment: pull-down; 100 pmol His-NOSIP-MBP (WT or K78A/K79A) or MBP immobilised on amylose beads, 100 pmol purified His-tagged NTR, with or without 300 pmol RanQ69L(1-180)-GTP, 3 h, 4 °C, TPB; SDS-PAGE, Coomassie; both purified
His-NOSIP-MBP K78AK79A = target: T2, His-NOSIP-MBP K78AK79A; experiment: as above
[2] = target: His-TNPO1 (transportin 1) (UniProt Q92973); experiment: condition: only with a 3-fold molar excess of RanQ69L(1-180)-GTP; SEC; as a6, with a 3-fold molar excess of RanQ69L(1-180)-GTP; both purified
His-importin 13 = target: T3, His-importin 13; experiment: as above
[3] = target: His-S-importin β (full length) (UniProt Q14974); experiment: condition: only with His-importin α (importin α:importin β:NOSIP 1:1:3); SEC; His-importin α : His-importin β : NOSIP at 1:1:3 in TPB; Superdex S200 increase 10/300 GL; fractions by SDS-PAGE, Coomassie; both purified
[4] = target: His-TNPO1 (transportin 1) (UniProt Q92973); experiment: cross-linking; 20 μM His-NOSIP and 20 μM His-TNPO1, complex purified by size exclusion chromatography, BS3 in 300-fold molar excess, 30 min, RT; cross-linked peptides by mass spectrometry; both purified
[5] = target: His-TNPO1 (transportin 1) (UniProt Q92973); experiment: SEC; His-NOSIP preincubated with one His-tagged NTR at 1:1 in TPB, 1-2 h, 4 °C; Superdex S200 increase 10/300 GL; fractions by SDS-PAGE, Coomassie; both purified

binding [1]	binding (His-NOSIP-MBP K78AK79A)	binding [2]	binding (His-importin 13)	binding [3]	binding [4]	binding [5]	Binder
binds	binds						B1
		no binding	no binding	no binding	binds	binds	B2
